# PubChem BioAssay (NCI)
# Some structures have more than one record in an assay (separate samples or runs), and their calls can disagree.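 Method: cells in 96-well plates; compound added at one concentration; 48 h incubation; percent growth measured; values under 10 scored active.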 The source holds more than one record for some entries. This is not the full list of results. An entry can have further records. The screen tested this drug many times, at its own concentration, as given; one value stands for one run. Counts like (3×) say how often a value occurs here.
# Tests used:
# [1] = tested on: MALME-3M melanoma; assay: NCI-60 one-dose screen, 48 h (100 = growth as untreated, 0 = no growth, -100 = all killed); conditions: 2.5 mM
# [2] = tested on: MDA-MB-231 breast; assay: as above; conditions: 2.5 mM
smiles,measurement,setting,value
O=c1[nH]cc(F)c(=O)[nH]1,growth,[1]; runs of 1993,"inactive: 30.6, 17.8, 33.1, 10.1, 29.6, 15, 10.6, 19.3, 16.6, 18.2, 21.9, 14, 15.7, 30.5, 24.6, 31.9, 17.3, 31.8, 11.3, 35.5, 24.5, 43.7, 25.1, 23.1, 77.3, 96.2, 37.1, 14.1, 39, 13.6, 20.2, 10.7, 49.2, 14.7% and active: 5.13, -5.13, -7.11, 0.744, 6.76, 6.6, -21.2, 7.43, 4.69, 5.96, 1.92, 5.87%"
same,growth,[1]; runs of 1994,"inactive: 31.5, 22.1, 30, 24.7, 35.3, 23.4, 26.3, 36.9, 26.4, 31.8, 34.8, 15.1, 16.9, 28.4, 31.6, 72, 31.1, 36.3, 29.9, 47.4, 28.8, 46, 27.2, 16.2% and active: 9.16, 8.95, -18.3, -2.5, 1.85, -1.15, 2.8, 4.84%"
same,growth,[1]; runs of 1995,"inactive: 23.1, 21.3 (2×), 43.2, 33.6, 14.5, 27.9, 19.9, 28.5, 35.9, 30.2, 17.5, 30, 33.5, 27.2, 50.4, 28, 22.9, 34.9 (2×), 12.5, 25.6, 31.1, 40.1, 16.5, 30.3, 41.6, 12.4, 35.4, 16.2, 40, 13.6, 36.2, 32.6% and active: -1.51, 5.63, -8.27, -14, 5.97, 1.39%"
same,growth,[1]; runs of 1996,"inactive: 25.7, 13.1, 12.8, 44.5, 30.8, 20.1, 35.8, 20.9, 28.3, 24.5, 27.5, 32.9, 45.7, 25.3, 17.1, 35.3, 27.3, 10.8, 34.7, 15.3 (2×), 18.9, 24.4, 29.7, 28.5, 59.3, 38.6, 49.7, 57.3, 49.4% and active: -1.06, 5.89, -16.6, -0.0896, 2.95, 1.78, 1.97, -1.34, -0.194, -16.7%"
same,growth,[1]; runs of 1997,"inactive: 22, 52.9, 51.1, 33.3, 60.6, 14.3, 44.5, 21.2, 31.1, 36.3, 19.5, 29.8 (2×), 27.7, 41.7, 31.8, 15.5, 18.1, 27.1, 26.8, 22.7, 15, 28.3, 18, 17.1, 47.8, 21.5% and active: -2.94, 7.3, 9.61, -10, 8.72, 3.39, -3.04%"
same,growth,[1]; runs of 1998,"inactive: 26.8, 29.2, 26.3, 47.4, 51.4, 50.3, 18.2, 25.5, 17.8, 31.4, 40.3, 24.6, 38.9, 32.9% and active: 0.18, 8.97, 9.27, 0.889, 9.76, -4.87%"
same,growth,[1]; runs of 1999,"inactive: 69.5%, 18.5%, 26.9% and active: -6.02, -18.2, -10.7, -100, -87.7, -96.9, -71.3, -5.62, -54.8%"
same,growth,[1]; runs of 2000,"active: -26.7%, -86.5%"
same,growth,[2]; runs of 1993,"inactive: 28.3, 34.8, 16.1, 37.3, 27.2, 41.6, 44.2, 46.3, 30.6, 25.2, 52.2, 61.1, 31.7, 51.2, 50.6, 12.1 (2×), 44.6, 31.4, 47.1, 39.6, 15, 12.8, 27.7, 46.2, 29.7, 43.6, 41.3, 21.6, 17.5, 36.5, 17.4, 28.7, 47.6, 20.2, 73.4, 25.9, 45, 44.9, 39.3, 21, 36, 31.2, 46.5, 35.5%"
same,growth,[2]; runs of 1994,"inactive: 50.3, 21.6, 45.4 (2×), 63.9, 37.1, 50.2 (2×), 44.4, 40.2, 58.2, 40.8, 17.5, 24.2, 74.9, 66.2, 63.1, 59.8, 42.8, 56.6, 32.8, 27.9, 23, 64.1, 29.6, 44.7, 47.5, 35.4, 49.1, 10.1, 15.4, 41.2%"
same,growth,[2]; runs of 1995,"inactive: 76.3, 58.1, 20.6, 26.8, 73.3, 29.4, 40.1, 24, 63.4 (2×), 21.5, 58.2, 71.3, 70.5, 43.4 (3×), 35.6, 57.3, 57.6, 46.2, 69.8, 63.1, 43.8, 47.2, 17.7, 42.6 (2×), 29, 27.6, 49.7, 55.5, 56.5, 44.1, 55.8% and active: -24.6, -7.77, -27.5, -47.7, 5.7%"
same,growth,[2]; runs of 1996,"inactive: 45, 46, 63.7, 79.3, 44.4, 34.3, 15.3, 42.9, 44.6, 23.9, 60.3 (2×), 62.2, 42.4, 38.6, 24.7, 37.4, 61.2 (2×), 53, 46.4, 65.5, 71.9, 69.7, 61.1, 39.3, 17.1, 47.9, 37.5, 56.8, 48.9, 101, 47.1, 83, 22.4, 38.3, 27.4, 54.7, 53.9, 64, 41.3, 39, 59.1, 49.2, 31.7, 16.9, 39.9, 50.6, 33, 72.9, 46.6, 49.1, 58% and active: 0.23, 3.88, -99.6, -26.4, -51, -3.61%"
same,growth,[2]; runs of 1997,"inactive: 37.6, 54.4, 49.3, 43.3, 28.8, 41.3, 43.8 (2×), 36.1, 16.3, 51.8, 61.6, 36.3, 93.1, 77.1, 26.9, 63.2, 63, 73.4, 38.6, 48.6, 82.9, 43, 61.8, 41.5 (2×), 36, 46.2, 42.3 (2×), 62.9, 17, 39.4, 51.2, 61.9, 42, 33, 51.7% and active: -28.2, 7.87, 7.36, -11.2%"
same,growth,[2]; runs of 1998,"inactive: 28 (2×), 20, 57.6, 59.2, 46.4, 55.3, 50.8, 55.4, 68.1, 30.8, 35.2, 38.1, 53.7, 67.7, 50.2, 17.8, 60.4, 59.4, 23.1, 41.2, 50.9% and active: -32.2%, -15.4%"
same,growth,[2]; runs of 1999,"active: -28.7, -10.9, 4.63, -9.08, 5.18, 0.442, 1.29, -26.6, -4.88% and inactive: 53.2, 41.3, 21.1, 33.6%"
